{"source": "PubChem BioAssay AID1479", "about": "(National Center for Advancing Translational Sciences (NCATS), 2009)", "note": "In all, about 280,000 compounds went through this assay and about 820 (0.29%) were called active. Inconclusive means that the source gave no clear call. Such entries were picked first, then a sample of the others. Calls follow the shape of the dose curve; as a rule, active = well fitted curve in either direction with a large enough effect; inconclusive = small, poorly fitted or top-dose-only effect; inactive = flat fitted curve, though single readings scatter. No potency is given beside an inconclusive call; the fits are too rough. Some structures have more than one record in an assay (separate samples or runs), and their calls can disagree. % is scaled to controls: 0 for no effect and ±100 for the full control effect; potency is read from the fitted curve at half-maximal effect; tags tell the direction and shape of the fitted curve or compound fluorescence and quenching.", "data": [{"test": "Total Fluorescence Counterscreen for Inhibitors of the Interaction of Thyroid Hormone Receptor and Steroid Receptor Coregulator 2", "details": "TRb/SRC2 Texas Red total fluorescence interference; series mostly up to 106 µM; fluorescence change, negative = quenching: at the top concentration", "outline": "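Flags fluorescent or light-absorbing compounds by total fluorescence, S + 2P, at 555 nm excitation and 632 nm emission. Mixture: 20 nM Texas Red SRC2 peptide, 0.6 uM human TRb LBD, 1 uM T3, 5% DMSO; compound exposure 5 h at ambient temperature.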", "values": [{"molecule": "CCOc1ccc(CC(=O)Nc2ccc3nc(N4CCCCC4)cc(C)c3c2)cc1OCC", "Potency": "inconclusive [quencher, partial curve]"}, {"molecule": "O=[N+]([O-])c1cccc(/C=N\\N=C2c3ccccc3-c3ccccc32)c1O", "Potency": "inconclusive [falling, partial curve, poor fit]"}, {"molecule": "Cc1cc(C)cc(N2CC(c3nc(-c4ccccc4C)no3)CC2=O)c1", "note": "(centres undefined)", "Potency": "inconclusive [falling, full curve, poor fit]"}, {"molecule": "Cc1sc2c(c1C)c(=O)n(CCc1ccccc1)c(=O)n2Cc1cccc(F)c1", "Potency": "inconclusive [falling, full curve, poor fit]"}, {"molecule": "Cc1ccc2c(c1)c(C)c(C)n2CC(O)CN1CCOCC1", "note": "(centres undefined)", "Potency": "inconclusive [fluorescent, partial curve]"}, {"molecule": "C(=C\\c1ccccc1)/C=N/Nc1nc2ccccc2[nH]1", "fluorescence change, negative = quenching": "inactive: -4.15%"}, {"molecule": "CCc1nc2sc3ccccc3c(=O)c2c(=O)n1Cc1ccco1", "Potency": "inconclusive [rising, single point]"}, {"molecule": "CCCS(=O)(=O)c1ncc(Cl)c(C(=O)N(Cc2ccccc2)Cc2ccco2)n1", "Potency": "inconclusive [falling, partial curve, poor fit]"}, {"molecule": "Cc1ccc(C2CC(=O)Oc3cc(O)ccc32)cc1", "note": "(centres undefined)", "Potency": "inconclusive [fluorescent, partial curve]"}, {"molecule": "Cc1csc(NC(=O)CSc2nnc(-c3ccc(S(=O)(=O)N4CCCC4)cc3)o2)n1", "fluorescence change, negative = quenching": "inactive: 1.56%"}, {"molecule": "COc1ccccc1NC(=O)C1=C(C)Nc2c(C(=O)Nc3ccc(F)cc3)cnn2C1c1ccc(Cl)cc1", "note": "(centres undefined)", "Potency": "inconclusive [falling, partial curve, poor fit]"}, {"molecule": "CCc1nn(CC(=O)NCCc2ccc(OC)cc2OC)c(=O)c2cc3sccc3n12", "Potency": "inconclusive [falling, full curve, poor fit]"}, {"molecule": "Cc1ccccc1CSc1cn(CCNC(=O)c2cccs2)c2ccccc12", "Potency": "inconclusive [quencher, full curve]"}, {"molecule": "COc1ccc(OC)c(NC(=O)c2cc(-c3ccc(C)cc3O)n[nH]2)c1", "Potency": "inconclusive [quencher, partial curve]"}, {"molecule": "COc1ccc(NC(=O)c2c3c(nc4ccccc24)CCC3)cc1S(=O)(=O)N1CCOCC1", "fluorescence change, negative = quenching": "inactive: -1.32% [at 53 µM]"}, {"molecule": "Cc1ccc(C)c(Cn2c(=O)c3c(nc4n3CCN4c3ccc(F)cc3)n(C)c2=O)c1", "Potency": "inconclusive [falling, full curve, poor fit]"}, {"molecule": "CCOc1ccc(-n2c(Cc3ccccc3)nnc2SCc2nc(-c3ccccc3C)no2)cc1", "Potency": "inconclusive [falling, full curve, poor fit]"}, {"molecule": "CCOC(=O)CC(NC(=O)c1cc2cc(OC)ccc2oc1=O)c1ccc(OC)cc1", "note": "(centres undefined)", "Potency": "inconclusive [quencher, full curve]"}, {"molecule": "O=C(C1CCN(S(=O)(=O)c2cccc3nonc23)CC1)N1CCN(c2ccc(F)cc2)CC1", "Potency": "inconclusive [falling, full curve, poor fit]"}, {"molecule": "COc1ccc(NCc2nnc(SCC(=O)Nc3ccc(OC)cc3)n2C)cc1", "fluorescence change, negative = quenching": "inactive: -0.557%"}, {"molecule": "Cc1ccc(CN(C)C(=O)c2cc(COc3ccc(F)cc3Cl)on2)o1", "fluorescence change, negative = quenching": "inactive: -5.66%"}, {"molecule": "CCCSc1ncc(Cl)c(C(=O)Nc2ccc(OC)cc2OC)n1", "Potency": "inconclusive"}, {"molecule": "Cc1ccc2nc(-c3ccccc3O)c(Nc3ccc4c(c3)OCCO4)n2c1", "fluorescence change, negative = quenching": "inactive: -1.82%"}, {"molecule": "CCN1C/C(=C/c2cccs2)c2nc3ccccc3c(C(=O)O)c2C1", "fluorescence change, negative = quenching": "inactive: -0.764%"}, {"molecule": "O=c1n(Cc2ccccc2)nc2n1-c1ccccc1OC2", "Potency": "active: 10 µM [quencher]"}, {"molecule": "CN(C)Cc1cc(O)c(CN(C)C)cc1O", "Potency": "inconclusive [falling, single point]"}, {"molecule": "O=C(CCS(=O)(=O)c1ccc(Br)s1)Nc1c(F)cccc1F", "Potency": "active: 398 µM [quencher]"}, {"molecule": "Cc1ccccc1CN1CCC(CNC(=O)c2cc3ccc4cccnc4c3[nH]2)CC1", "Potency": "inconclusive [falling, full curve, poor fit]"}, {"molecule": "N#Cc1ccc(S(=O)(=O)NC2CCN(Cc3ccccc3)CC2)cc1", "Potency": "inconclusive [rising, single point]"}, {"molecule": "CCOc1ccc(CCNC(=O)c2cnc3sc(N(CC)CC)nn3c2=O)cc1OCC", "Potency": "inconclusive [falling, full curve, poor fit]"}, {"molecule": "O=C1[C@@H]2[C@@H]3C[C@@H]([C@H]4ON=C(c5ccc(Cl)cc5)[C@@H]34)[C@@H]2C(=O)N1C1CCCCC1", "Potency": "inconclusive [falling, partial curve, poor fit]"}, {"molecule": "O=C(NCc1ccco1)c1ccc(Cn2c(SCc3ccc(F)cc3)nc3cccnc32)cc1", "Potency": "inconclusive [quencher, full curve]"}, {"molecule": "FC(F)(F)c1cccc(-c2nc3nc(Cl)c(Cl)nc3[nH]2)c1", "Potency": "inconclusive [rising, single point]"}, {"molecule": "CC(CCC(=O)O)C1CCC2C3CC(O)[C@@H]4CC(O)CC[C@]4(C)C3CC[C@@]12C", "note": "(some centres undefined)", "Potency": "inconclusive [falling, full curve, poor fit]"}, {"molecule": "O=C(Cn1c(-c2cccs2)cc2cc(F)ccc21)N1CCN(c2ccccc2)CC1", "Potency": "inconclusive [quencher, full curve]"}, {"molecule": "CC(=O)OCC1OC(c2ccc3c(c2)OCO3)C=CC1OC(C)=O", "note": "(centres undefined)", "Potency": "inconclusive [quencher, full curve]"}, {"molecule": "COc1ccccc1C(=O)Nc1ccc(-c2cc(C(F)(F)F)nn2-c2ccccc2)cc1", "Potency": "inconclusive [quencher, full curve]"}, {"molecule": "Oc1ccc(NCc2ccccc2OCc2ccccc2)cc1", "Potency": "active: 50.1 µM [fluorescent]"}, {"molecule": "COc1ccc(C(C)=O)cc1COC(=O)CNC(=O)c1cc(C)cc(C)c1", "Potency": "inconclusive [falling, full curve, poor fit]"}, {"molecule": "CCc1n(CC(O)COCc2ccccc2)c2ccccc2[n+]1C", "note": "(centres undefined)", "fluorescence change, negative = quenching": "inactive: -0.283%"}, {"molecule": "Cc1cc(C)cc(NC(=O)C(=O)NCC(c2cccnc2)N2CCOCC2)c1", "note": "(centres undefined)", "Potency": "inconclusive [falling, full curve, poor fit]"}, {"molecule": "COc1ccccc1N1CCN(C(=O)Cn2c(=O)nc(-c3ccccc3)c3ccccc32)CC1", "fluorescence change, negative = quenching": "inactive: -2.14%"}, {"molecule": "CC(C)(C)c1ccc(NC(=O)NCc2ccco2)cc1", "fluorescence change, negative = quenching": "inactive: -4.34%"}, {"molecule": "COc1ccc(Cl)cc1NC(=O)Cn1c(=O)n(Cc2ccc(F)cc2)c(=O)c2cccnc21", "Potency": "inconclusive [falling, full curve, poor fit]"}, {"molecule": "COc1ccccc1NC(=O)c1c(C)cc(C)nc1SCC(=O)Nc1ccc(C)cc1", "Potency": "inconclusive [falling, partial curve, poor fit]"}, {"molecule": "O=C(/C=C/c1cnc2ccccc2n1)NC12CC3CC(CC(C3)C1)C2", "Potency": "inconclusive [falling, partial curve, poor fit]"}, {"molecule": "CCN1CCC(N(Cc2cccc(OC)c2)C(=O)Nc2cccc(C)c2C)CC1", "Potency": "inconclusive [quencher, full curve]"}, {"molecule": "Cc1ccccc1SCC(=O)N1CCN(c2ccc(C(F)(F)F)cn2)CC1", "Potency": "inconclusive [falling, partial curve, poor fit]"}, {"molecule": "CC(=O)c1ccc(C2C=CC(O)C(CO)O2)cc1", "note": "(centres undefined)", "Potency": "inconclusive"}, {"molecule": "Cc1ccc(-n2nnnc2SCC(=O)NNC(=O)c2ccc([N+](=O)[O-])cc2)cc1", "Potency": "inconclusive [quencher, partial curve]"}, {"molecule": "O=C(Nc1ccc(Cl)cc1)Nc1nnc(CSCc2ccccc2Cl)s1", "fluorescence change, negative = quenching": "inactive: -8.35%"}, {"molecule": "Cc1ccc(NC(=O)CSc2nc3ccc(NC(=O)c4cccs4)cc3s2)c(C)c1", "Potency": "inconclusive [quencher, partial curve]"}, {"molecule": "O=C(OCc1cc(=O)n2c(n1)sc1ccccc12)c1cccc(O)c1", "Potency": "inconclusive [quencher, partial curve]"}, {"molecule": "C/C(=N\\NC(=O)CC#N)c1cc2ccccc2oc1=O", "fluorescence change, negative = quenching": "inactive: -2.72%"}, {"molecule": "CCOc1ccc(CCNC(=O)C2CCN(C(=O)N3CC(CC)Oc4ccc(C)cc43)CC2)cc1", "note": "(centres undefined)", "Potency": "inconclusive [quencher, full curve]"}, {"molecule": "CCCSCCCNC(=O)C1CCN(C(=O)c2cc3sccc3n2C)CC1", "Potency": "active: 31.6 µM [quencher]"}, {"molecule": "COc1ccc(-c2c(C#N)c(SCC(=O)Nc3ccccc3C)nc(C)c2C(=O)Nc2ccccc2)cc1OC", "Potency": "inconclusive [falling, full curve, poor fit]"}, {"molecule": "N#C/C(=C\\c1ccc(Cl)cc1)C(=O)NCC1CCCO1", "note": "(centres undefined)", "Potency": "inconclusive [falling, partial curve, poor fit]"}, {"molecule": "Cc1cc(C)n2c(SC/C(O)=C(\\C#N)c3nc4ccccc4[nH]3)nnc2n1", "Potency": "inconclusive [quencher, partial curve]"}, {"molecule": "O=C(O)CCC/C=C\\C[C@@H]1[C@@H](/C=C/[C@@H](O)COc2cccc(Cl)c2)[C@H](O)C[C@@H]1O", "Potency": "inconclusive [falling, partial curve, poor fit]"}, {"molecule": "COc1ccc(C(=O)Nc2ccc(-c3cc4ccccc4oc3=O)c(C)c2)cc1Br", "Potency": "inconclusive [falling, partial curve, poor fit]"}, {"molecule": "CC(=O)c1cccc(NC(=O)CCc2c(C)nc3c(-c4ccc(F)cc4)c(C)nn3c2C)c1", "Potency": "inconclusive [falling, full curve, poor fit]"}, {"molecule": "CCC(=O)N1CCc2cc(Br)cc(S(=O)(=O)N3CCCC(C(=O)NCc4cccc(OC)c4)C3)c21", "note": "(centres undefined)", "Potency": "active: 0.0079 µM [quencher]"}, {"molecule": "COC(=O)c1ccc(C(=O)NC(=S)Nc2nc3c(s2)CC(C)CC3)cc1", "note": "(centres undefined)", "Potency": "inconclusive [falling, partial curve, poor fit]"}]}]}
